Laboratory results reported in patent US20250041385A1 (Biogen, published 2025).

Target: T1, myostatin (UniProt O14793 267-375, limits assumed)
T1 construct: also called GDF-8
T1 sequence (looked up): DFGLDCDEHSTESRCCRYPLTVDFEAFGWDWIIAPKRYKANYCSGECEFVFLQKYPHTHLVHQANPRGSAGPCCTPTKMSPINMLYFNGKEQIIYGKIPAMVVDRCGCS
Test: myostatin binding ELISA; potency relative to Sample #1
Method: Myostatin binding activities of mutant ActRIIB polypeptide fusion protein with N18Q mutation (SEQ ID NO: 119) as well as the corresponding ActRIIB polyppetide fusion protein without N18Q mutation (SEQ ID NO: 29) were analyzed using an ELISA assay. […] Percent sialylation was determined by mass spectrometry of the N18 peptide.

Potency % of reference: 79 % of reference
B1: ActRIIB polypeptide fusion protein comprising soluble ActRIIB-ECD without the N18Q mutation (SEQ ID NO: 29), Batch 2 (Fc fusion)
chain: ETRECIYYNANWELERTNQSGLERCEGDQDKRLHCYASWRNSSGTIELVKKGCWLDDINCYDRQECVATKENPQVYFCCCEGNFCNERFTHLPEAGGPEVTYEPPPTAPTGGGGS[no letters for human IgG4 Fc with S228P (EU numbers)]
modifications: N-linked glycan at N18, 75% sialylation at N18 (mass spectrometry of the N18 peptide)
notes: this batch has higher N18 sialylation; also called Sample #2

Potency % of reference: 57 % of reference
B2: ActRIIB polypeptide fusion protein comprising soluble ActRIIB-ECD without the N18Q mutation (SEQ ID NO: 29), Batch 3 (Fc fusion)
chain: B1 chain
modifications: N-linked glycan at N18, 83% sialylation at N18 (mass spectrometry of the N18 peptide)
notes: this batch has the highest N18 sialylation; also called Sample #3

Potency % of reference: 108 % of reference
B3: Mutant soluble ActRIIB-ECD N18Q fusion protein (SEQ ID NO: 222), produced in Example 1 (Fc fusion)
chain: B1 chain with N18Q
modifications: N18 glycosylation site removed by N18Q (N18 sialylation 0%); N-linked glycosylation sites at N41 and N194; three O-linked glycosylation sites
notes: Expressed in CHO cells and purified on Protein A and anion exchange columns; Fraction 200-1 was used for the assays; also called N18Q mutant; Sample #4

Substitutions are numbered along the chain they refer to. Names may count otherwise. Each block holds one binder with its values, some of them ahead of it.
